Results from the supplement of paper PMC5499739.
Over roughly 16,000 sequences, “Z-score” has its median near -0.37; the highest 2% begin near 3.1. This is one part of the list.

Tested on: RBM10 RRM1-ZnF-RRM2 (GST-tagged construct)
Assay: RNAcompete 7-mer binding Z-score; higher = stronger binding preference
Outline: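 Each heptamer motif was given a one-sided Z-score for enrichment across the probes that contained it. GST-tagged RBM10 constructs (20 pmol) were combined with 1.5 nmol of a designed pool of 241 399 RNAs of up to 41 nt, transcribed from microarray-derived DNA templates. Binding took place in 1 ml Hepes pH 7.8 buffer containing KCl, NaCl, glycerol, DTT, BSA and glutathione Sepharose beads for 30 min at 4°C. After four 2-min washes at 4°C, bound RNA was identified by microarray hybridisation.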

Compared with UAACAUU, GCCCGGG is higher in “RNAcompete 7-mer binding Z-score” value: -0.369 for the first, 0.177 for the second.

Compared with AUCGAUU, ACCCAUG is higher in “RNAcompete 7-mer binding Z-score” value: -0.697 for the first, -0.584 for the second.

Going from AAAUUCG to GGGGUAU, the “RNAcompete 7-mer binding Z-score” value rises from -0.46 to 2.98.

Going from AAAAAAA to UUUAGUG, the “RNAcompete 7-mer binding Z-score” value rises from -0.49 to -0.0197.

Going from CACCCUA to UUCAUCA, the “RNAcompete 7-mer binding Z-score” value rises from -0.621 to -0.573.

Going from CGCUUAA to AAUGAGA, the “RNAcompete 7-mer binding Z-score” value rises from -0.839 to 0.727.

Compared with AAGGAGA, GUACAAA is lower in “RNAcompete 7-mer binding Z-score” value: 3.18 for the first, -0.0233 for the second.

Going from AAAGGGU to AAGUAGU, the “RNAcompete 7-mer binding Z-score” value falls from 4.71 to 0.286.

Going from AUCUAUA to AGAUCGG, the “RNAcompete 7-mer binding Z-score” value rises from -0.533 to 0.57.

First: UCGCCAG
Second: CGGGGAG
The “RNAcompete 7-mer binding Z-score” value of the first is lower: -0.595 for the first, 2.54 for the second.

First: AAACUGA
Second: UCGCAUA
The “RNAcompete 7-mer binding Z-score” value of the first is lower: -0.398 for the first, -0.289 for the second.

Going from CUGGAAA to CUUUUCA, the “RNAcompete 7-mer binding Z-score” value falls from 0.235 to -0.664.

Compared with AGUUCCA, UGUUUCU is higher in “RNAcompete 7-mer binding Z-score” value: -0.65 for the first, -0.413 for the second.

First: ACGGGCU
Second: GUUGGGG
The “RNAcompete 7-mer binding Z-score” value of the first is lower: 1.2 for the first, 3.69 for the second.

Compared with GGGAGGC, CGUCUGA is lower in “RNAcompete 7-mer binding Z-score” value: 3.2 for the first, -0.712 for the second.

Compared with AACUGGC, UAGUGUU is lower in “RNAcompete 7-mer binding Z-score” value: 0.0714 for the first, -0.0197 for the second.

First: GUGCAUU
Second: UAAGACC
The “RNAcompete 7-mer binding Z-score” value of the first is higher: -0.122 for the first, -0.555 for the second.

Going from CCGGGUG to GUCCUGG, the “RNAcompete 7-mer binding Z-score” value falls from 1.62 to 0.213.

First: GGGCAUC
Second: AUGAGGA
The “RNAcompete 7-mer binding Z-score” value of the first is lower: 1.56 for the first, 2.12 for the second.

First: GAGCUUG
Second: GAACGCC
The “RNAcompete 7-mer binding Z-score” value of the first is higher: -0.191 for the first, -0.53 for the second.

Compared with CAUUGCA, UUCGACG is lower in “RNAcompete 7-mer binding Z-score” value: -0.471 for the first, -0.497 for the second.

Compared with UCAUGUC, GUACCGA is higher in “RNAcompete 7-mer binding Z-score” value: -0.726 for the first, -0.14 for the second.

Going from ACAUCAU to UACGAAG, the “RNAcompete 7-mer binding Z-score” value rises from -0.581 to 0.177.

First: GCUCGAU
Second: AAAUUGG
The “RNAcompete 7-mer binding Z-score” value of the first is lower: -0.602 for the first, 0.967 for the second.

Compared with GGAAUUC, CGUCAGU is lower in “RNAcompete 7-mer binding Z-score” value: 0.246 for the first, -0.544 for the second.

Compared with ACCCUGU, UCCGAGA is higher in “RNAcompete 7-mer binding Z-score” value: -0.916 for the first, -0.479 for the second.

Going from GUGACCC to AAGAGGC, the “RNAcompete 7-mer binding Z-score” value rises from -0.0525 to 1.01.

Compared with ACACCGC, UUUUAGA is higher in “RNAcompete 7-mer binding Z-score” value: -0.672 for the first, -0.65 for the second.

Going from UACAACU to AAUGCAC, the “RNAcompete 7-mer binding Z-score” value rises from -0.599 to -0.195.

First: CCGCUUA
Second: GUGGGUU
The “RNAcompete 7-mer binding Z-score” value of the first is lower: -0.956 for the first, 2.54 for the second.

First: CCCCCCU
Second: UAGUACG
The “RNAcompete 7-mer binding Z-score” value of the first is lower: -0.362 for the first, 0.177 for the second.

Compared with AUCGGGC, GGAUACA is higher in “RNAcompete 7-mer binding Z-score” value: 0.847 for the first, 2.49 for the second.

First: AGCUGAG
Second: UUAAGGC
The “RNAcompete 7-mer binding Z-score” value of the first is lower: 0.101 for the first, 0.283 for the second.

Compared with CCUACCC, UCAUAAC is higher in “RNAcompete 7-mer binding Z-score” value: -0.668 for the first, -0.562 for the second.

First: ACUACUC
Second: CCUCGAC
The “RNAcompete 7-mer binding Z-score” value of the first is lower: -0.905 for the first, -0.795 for the second.

First: GACUGAU
Second: UGUACGA
The “RNAcompete 7-mer binding Z-score” value of the first is lower: -0.409 for the first, 0.21 for the second.

First: UCGGAUG
Second: UCAUCAC
The “RNAcompete 7-mer binding Z-score” value of the first is higher: 0.512 for the first, -0.715 for the second.

First: AUGCUUG
Second: UGCUGAA
The “RNAcompete 7-mer binding Z-score” value of the first is lower: -0.61 for the first, -0.46 for the second.

Compared with AUAUCCC, UCUUCUU is lower in “RNAcompete 7-mer binding Z-score” value: -0.69 for the first, -0.795 for the second.

Compared with CGGGACU, UAUAGUA is lower in “RNAcompete 7-mer binding Z-score” value: 0.96 for the first, -0.14 for the second.

Going from GAAGAUU to CGAAAAC, the “RNAcompete 7-mer binding Z-score” value falls from 0.0058 to -0.457.

First: CCGGGCC
Second: GUUGUUC
The “RNAcompete 7-mer binding Z-score” value of the first is lower: -0.592 for the first, -0.293 for the second.

Compared with GUCACGA, AGAGCAG is higher in “RNAcompete 7-mer binding Z-score” value: -0.264 for the first, 0.72 for the second.

First: AAUUUCA
Second: AGCACUA
The “RNAcompete 7-mer binding Z-score” value of the first is lower: -0.57 for the first, -0.176 for the second.

Going from ACCAAUA to GUAUUAA, the “RNAcompete 7-mer binding Z-score” value rises from -0.522 to -0.187.

Compared with CGUGAGG, GGUCGGG is higher in “RNAcompete 7-mer binding Z-score” value: 1.73 for the first, 2.72 for the second.

Going from GCAGCCC to GUUUAGA, the “RNAcompete 7-mer binding Z-score” value rises from -0.497 to -0.169.

Going from UGUCUAU to AUCAGAA, the “RNAcompete 7-mer binding Z-score” value rises from -0.624 to 0.0604.

Compared with GAGAACA, GGAUCGA is higher in “RNAcompete 7-mer binding Z-score” value: 0.465 for the first, 0.691 for the second.

First: AAGGACG
Second: CAAAUUG
The “RNAcompete 7-mer binding Z-score” value of the first is higher: 2.66 for the first, -0.337 for the second.
